# Results from the antibiotic and cytotoxicity screens of Wong et al. (2023).
# The other results are listed elsewhere or left out.
# Columns and labels:
# HSkMC = human skeletal muscle cells; test: cytotoxicity call (relative viability < 0.9); conditions: 10 µM
# HepG2 = test: cytotoxicity call (relative viability < 0.9); conditions: 10 µM
# S. aureus RN4220 = test: growth inhibition call (relative growth <= 0.2); conditions: 50 µM
Structure (SMILES),cytotoxicity call (HSkMC),cytotoxicity call (HepG2),growth inhibition call (S. aureus RN4220)
COc1ccc(S(=O)(=O)N(C)C[C@H]2Oc3c(NC(=O)c4ccncc4)cccc3C(=O)N([C@H](C)CO)C[C@H]2C)cc1,inactive,inactive,inactive
CNC[C@H]1OCCCC[C@H](C)Oc2ccc(NC(=O)CCCN(C)C)cc2C(=O)N([C@@H](C)CO)C[C@@H]1C,inactive,inactive,inactive
O=C(C[C@@H]1CC[C@H]2[C@@H](COC[C@@H](O)CN2S(=O)(=O)c2ccccc2F)O1)NCc1ccccc1F,inactive,inactive,inactive
CN(CCOP(=O)(O)O)C(=N)N,inactive,inactive,inactive
O=C(CCCCCNC(=O)OCc1ccc(CO[C@@H]2C[C@H](c3csc4ccccc34)C=C(C(=O)N3CCN(Cc4ccccc4)CC3)O2)cc1)NO,inactive,inactive,inactive
C[C@@H]1CCCCO[C@@H](CN(C)C(=O)C2CCCCC2)[C@@H](C)CN([C@H](C)CO)C(=O)c2cc(NC(=O)Nc3ccc(F)cc3)ccc2O1,inactive,inactive,inactive
OCCN1C[C@H](O)[C@@H](O)[C@H](O)[C@H]1CO,inactive,inactive,inactive
Cc1noc(C)c1S(=O)(=O)Nc1ccc2c(c1)CC(=O)N([C@@H](C)CO)C[C@H](C)[C@H](CN(C)S(=O)(=O)c1c(C)noc1C)O2,inactive,inactive,inactive
COc1ccc(NC(=O)N(C)C[C@@H]2Oc3ccc(NC(=O)Nc4cccc5ccccc45)cc3C(=O)N([C@H](C)CO)C[C@@H]2C)cc1,inactive,inactive,inactive
COc1ccc(S(=O)(=O)N(C)C[C@@H]2Oc3ccc(NC(=O)Cn4cnnn4)cc3CC(=O)N([C@H](C)CO)C[C@@H]2C)cc1,inactive,inactive,inactive
C[C@@H]1CN([C@@H](C)CO)C(=O)c2c(c3ccccc3n2C)-c2ccccc2CO[C@@H]1CN(C)Cc1ccc(-c2ccccc2)cc1,active,inactive,inactive
C[C@H]1CN([C@@H](C)CO)C(=O)c2cc(NC(=O)CCCN(C)C)ccc2O[C@H]1CN(C)Cc1ccc(Oc2ccccc2)cc1,inactive,active,inactive
CCCCc1cn(C[C@@H]2CCCN2C(=O)N[C@H](CO)CCc2oc(C(C)=O)c(C(=O)OC)c2C(=O)OC)nn1,inactive,inactive,inactive
